We go through three compounds from PubChem BioAssay (NCI).

Test systems include DLD-1 colon; HCT-116 colon; HT29 colon; IGROV1 ovarian; KM12 colon; KM20L2 colon; M19-MEL melanoma; NCI-H23 lung; NCI-H460 lung; SF-268 CNS; SF-295 CNS; SK-OV-3 ovarian; SN12C renal; U251 CNS; XF 498 CNS; NCI-H226 lung; RXF 393 renal; DMS 114 small cell lung; NCI-H522 lung; OVCAR-3 ovarian; OVCAR-4 ovarian.
Holding throughout (assay): NCI anticancer screen, dose series, 48 h

SMILES strings stand for the structures.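 Where inhibition never reached the appropriate level, the endpoint shown equals the highest concentration tested. Otherwise, values were interpolated linearly from a five-concentration, 48-hour dose response in 96-well plates. Abbreviation: GI50, concentration required for 50% inhibition of growth.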 For part of its entries the source gives two or more results. The list is limited to them. There may be further records. For some of these results: Values that stand side by side are repeats across runs, samples, wells, individuals or studies. What stands in brackets tells the records apart. Letters count within one entry.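 TGI: concentration producing complete growth inhibition.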 For some of these results: Records of one sample usually come from different ranges of test concentrations, not given here; some values may only mark the edge of a range.

In the case of `CC(=O)O[C@H]1C(=O)[C@@]2(C)C([C@H](OC(=O)c3ccccc3)[C@]3(O)C[C@H](OC(=O)[C@H](O)[C@H](NC(=O)c4ccccc4)c4ccc(Cl)cc4)C(C)=C1C3(C)C)C1(OC(C)=O)CO[C@@H]1C[C@@H]2O` (some centres not stated), the TGI with DLD-1 colon was 443 nM and 48.3 µM; in the assay on HCT-116 colon, 1.76 nM and 11.5 µM; in the assay with HT29 colon, 2.82 nM and 2.91 µM; in the assay with IGROV1 ovarian, 11.6 nM and 22.3 µM; in the assay with KM12 colon it was 2.77 nM and 16.7 µM; in the assay with KM20L2 colon it was 3.06 nM and 1.21 µM. In addition, the TGI with M19-MEL melanoma was 3.65 nM and 14.7 µM; in the assay with NCI-H23 lung, 4.43 nM and 48.5 µM; in the assay on NCI-H460 lung, 593 nM and 13.1 µM; with SF-268 CNS, 97.5 nM and 78.4 µM; in the assay on SF-295 CNS, 232 nM and 12.8 µM; in the assay with SK-OV-3 ovarian, 6.64 nM and 19.5 µM. The TGI in the assay on SN12C renal was 30.1 nM and 90.8 µM; in the assay on U251 CNS it was 22.4 nM and 19.3 µM; with XF 498 CNS it was 45.8 nM and 25.8 µM.
Consider `COc1cc(CCc2cc(NC(=O)c3ccc(N4C[C@@H](C)N[C@@H](C)C4)cc3)n[nH]2)cc(OC)c1`, for which the GI50 is 125 nM [sample A, 1 test] and 3.97 µM [sample B, 1 test] with NCI-H226 lung; 56.5 nM [sample A, 1 test] and 2 µM [sample B, mean of 2 tests] in the assay on RXF 393 renal.
As to `CCOC(=O)/N=c1\ss/c(=N\C(=S)N(C)C)n1-c1ccccc1`, the TGI in the assay on DMS 114 small cell lung is 2.61 µM and > 100 µM; in the assay with M19-MEL melanoma, 8.21 µM and > 100 µM; in the assay on NCI-H522 lung it was 549 nM and 5.59 µM; with OVCAR-3 ovarian it was 1.97 µM and > 100 µM; in the assay on OVCAR-4 ovarian it was 7.58 µM and > 100 µM.
